Experimental data from PMC12753876.
Results are given in words; binding and its absence hold for the method and conditions named. For some of these results: In cells and extracts the contact can be indirect. Some entries that bind do so weakly or less than the wild type. For some of these results: Where a sequence is shown, tags or fusion partners need not be part of it.

Chains of the proteins cited; added tags and fusions are not shown. Lines headed by an entry give the natural chain unless they say otherwise; changes in a name come on top. A line that says so, or that is headed by a name, gives the form on record, which may keep a tag or linker. Residues count along the entry.
UniProt Q9T0D3: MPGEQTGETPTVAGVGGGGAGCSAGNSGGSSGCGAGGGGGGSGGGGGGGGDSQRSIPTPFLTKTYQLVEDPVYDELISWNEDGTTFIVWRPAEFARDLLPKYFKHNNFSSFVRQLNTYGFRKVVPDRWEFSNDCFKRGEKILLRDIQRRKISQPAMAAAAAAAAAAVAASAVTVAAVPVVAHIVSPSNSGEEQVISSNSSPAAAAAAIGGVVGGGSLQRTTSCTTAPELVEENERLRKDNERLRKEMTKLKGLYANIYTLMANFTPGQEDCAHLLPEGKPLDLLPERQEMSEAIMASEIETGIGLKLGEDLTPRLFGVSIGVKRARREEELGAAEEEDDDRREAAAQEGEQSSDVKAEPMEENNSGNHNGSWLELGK
UniProt Q8GYY1: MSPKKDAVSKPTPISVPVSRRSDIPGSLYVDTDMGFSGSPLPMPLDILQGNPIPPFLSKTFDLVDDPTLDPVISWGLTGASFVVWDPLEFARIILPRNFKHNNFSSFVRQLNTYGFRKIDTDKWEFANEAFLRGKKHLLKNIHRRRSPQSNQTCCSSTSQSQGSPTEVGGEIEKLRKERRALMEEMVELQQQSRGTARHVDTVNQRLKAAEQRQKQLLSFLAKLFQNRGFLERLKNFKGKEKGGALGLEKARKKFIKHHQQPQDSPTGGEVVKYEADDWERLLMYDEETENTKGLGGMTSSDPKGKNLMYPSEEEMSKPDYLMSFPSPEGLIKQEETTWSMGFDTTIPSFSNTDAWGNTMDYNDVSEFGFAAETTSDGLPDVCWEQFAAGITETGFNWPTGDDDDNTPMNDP
HsFA3^Δ(168-228)-cYFP (Q8GYY1, form named): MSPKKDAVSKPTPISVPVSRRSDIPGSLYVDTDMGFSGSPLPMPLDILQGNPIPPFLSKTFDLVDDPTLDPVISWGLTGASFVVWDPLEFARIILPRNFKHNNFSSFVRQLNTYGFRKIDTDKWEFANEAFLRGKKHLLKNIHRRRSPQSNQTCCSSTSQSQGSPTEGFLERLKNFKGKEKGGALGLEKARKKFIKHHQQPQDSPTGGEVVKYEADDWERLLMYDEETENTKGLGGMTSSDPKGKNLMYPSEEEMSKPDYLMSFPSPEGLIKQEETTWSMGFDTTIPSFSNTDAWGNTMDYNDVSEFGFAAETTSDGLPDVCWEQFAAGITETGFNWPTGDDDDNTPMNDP
UniProt O81821: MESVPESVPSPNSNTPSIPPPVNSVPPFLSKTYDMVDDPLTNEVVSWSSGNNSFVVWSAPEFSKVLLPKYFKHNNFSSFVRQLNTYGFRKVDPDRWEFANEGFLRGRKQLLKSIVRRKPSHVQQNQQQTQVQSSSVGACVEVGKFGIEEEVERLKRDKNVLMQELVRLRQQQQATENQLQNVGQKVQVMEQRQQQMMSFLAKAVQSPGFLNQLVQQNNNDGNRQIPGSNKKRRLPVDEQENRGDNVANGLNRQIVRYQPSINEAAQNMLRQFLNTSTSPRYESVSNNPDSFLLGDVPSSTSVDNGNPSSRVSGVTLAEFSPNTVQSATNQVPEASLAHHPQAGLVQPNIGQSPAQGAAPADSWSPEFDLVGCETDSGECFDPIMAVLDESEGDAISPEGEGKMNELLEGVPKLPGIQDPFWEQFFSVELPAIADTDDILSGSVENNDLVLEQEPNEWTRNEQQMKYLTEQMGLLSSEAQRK
UniProt Q9FK72: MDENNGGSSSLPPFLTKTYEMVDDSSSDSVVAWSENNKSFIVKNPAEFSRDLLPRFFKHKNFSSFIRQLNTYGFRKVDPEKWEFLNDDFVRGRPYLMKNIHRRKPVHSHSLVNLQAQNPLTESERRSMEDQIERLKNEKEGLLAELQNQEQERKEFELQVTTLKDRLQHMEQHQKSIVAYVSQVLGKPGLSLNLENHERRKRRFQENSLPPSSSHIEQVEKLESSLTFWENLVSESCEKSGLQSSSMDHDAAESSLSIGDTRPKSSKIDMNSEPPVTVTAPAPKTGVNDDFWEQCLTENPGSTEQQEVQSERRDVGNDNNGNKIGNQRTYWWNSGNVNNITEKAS
UniProt P41151: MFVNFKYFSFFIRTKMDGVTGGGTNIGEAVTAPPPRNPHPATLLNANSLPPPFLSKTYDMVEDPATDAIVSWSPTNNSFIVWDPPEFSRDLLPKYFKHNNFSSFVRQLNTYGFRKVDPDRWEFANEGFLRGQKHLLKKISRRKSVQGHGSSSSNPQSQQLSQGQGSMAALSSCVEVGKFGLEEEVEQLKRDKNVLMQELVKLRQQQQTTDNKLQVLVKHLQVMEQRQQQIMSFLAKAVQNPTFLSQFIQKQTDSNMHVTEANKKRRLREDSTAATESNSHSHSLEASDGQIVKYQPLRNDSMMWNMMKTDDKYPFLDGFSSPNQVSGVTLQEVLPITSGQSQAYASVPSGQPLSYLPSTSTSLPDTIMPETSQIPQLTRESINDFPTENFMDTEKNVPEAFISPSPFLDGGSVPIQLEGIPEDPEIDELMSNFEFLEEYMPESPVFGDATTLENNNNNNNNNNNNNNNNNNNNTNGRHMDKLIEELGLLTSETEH
UniProt Q9LQM7: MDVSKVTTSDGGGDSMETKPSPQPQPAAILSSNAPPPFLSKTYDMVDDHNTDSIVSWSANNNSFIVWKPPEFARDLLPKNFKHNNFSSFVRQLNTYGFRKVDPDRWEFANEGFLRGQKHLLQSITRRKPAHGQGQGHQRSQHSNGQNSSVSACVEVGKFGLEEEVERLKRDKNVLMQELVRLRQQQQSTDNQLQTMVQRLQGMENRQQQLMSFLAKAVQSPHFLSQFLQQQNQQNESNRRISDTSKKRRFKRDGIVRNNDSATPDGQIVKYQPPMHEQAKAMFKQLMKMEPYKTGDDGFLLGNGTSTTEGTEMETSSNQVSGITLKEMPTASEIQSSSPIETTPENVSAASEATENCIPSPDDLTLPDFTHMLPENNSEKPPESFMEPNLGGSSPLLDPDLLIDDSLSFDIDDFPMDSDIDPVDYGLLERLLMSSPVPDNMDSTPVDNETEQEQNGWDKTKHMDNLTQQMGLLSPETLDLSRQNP
HsFA1d^Δ(160-220)-cYFP (Q9LQM7, form named): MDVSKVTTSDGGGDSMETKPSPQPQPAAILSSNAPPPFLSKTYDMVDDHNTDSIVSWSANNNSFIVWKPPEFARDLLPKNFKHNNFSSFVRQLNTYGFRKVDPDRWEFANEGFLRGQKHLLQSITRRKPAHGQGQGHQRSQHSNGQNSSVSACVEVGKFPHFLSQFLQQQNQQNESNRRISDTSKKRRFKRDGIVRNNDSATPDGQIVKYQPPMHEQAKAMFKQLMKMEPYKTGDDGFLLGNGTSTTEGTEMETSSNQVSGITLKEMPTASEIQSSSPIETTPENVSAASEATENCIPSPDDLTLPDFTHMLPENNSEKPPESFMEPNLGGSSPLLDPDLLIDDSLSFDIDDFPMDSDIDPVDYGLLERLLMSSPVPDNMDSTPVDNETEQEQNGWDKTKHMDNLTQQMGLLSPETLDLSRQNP
UniProt Q9LV52: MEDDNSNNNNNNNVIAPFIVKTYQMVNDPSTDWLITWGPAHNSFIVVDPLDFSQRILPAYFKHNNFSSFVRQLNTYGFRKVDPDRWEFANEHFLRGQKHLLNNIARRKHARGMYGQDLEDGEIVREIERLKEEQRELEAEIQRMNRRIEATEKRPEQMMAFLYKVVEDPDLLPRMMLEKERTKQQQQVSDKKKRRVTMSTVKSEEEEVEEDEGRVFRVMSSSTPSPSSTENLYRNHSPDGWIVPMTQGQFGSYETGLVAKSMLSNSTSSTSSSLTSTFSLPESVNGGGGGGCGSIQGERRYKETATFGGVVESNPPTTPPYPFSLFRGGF
UniProt Q43125, residues 1-508: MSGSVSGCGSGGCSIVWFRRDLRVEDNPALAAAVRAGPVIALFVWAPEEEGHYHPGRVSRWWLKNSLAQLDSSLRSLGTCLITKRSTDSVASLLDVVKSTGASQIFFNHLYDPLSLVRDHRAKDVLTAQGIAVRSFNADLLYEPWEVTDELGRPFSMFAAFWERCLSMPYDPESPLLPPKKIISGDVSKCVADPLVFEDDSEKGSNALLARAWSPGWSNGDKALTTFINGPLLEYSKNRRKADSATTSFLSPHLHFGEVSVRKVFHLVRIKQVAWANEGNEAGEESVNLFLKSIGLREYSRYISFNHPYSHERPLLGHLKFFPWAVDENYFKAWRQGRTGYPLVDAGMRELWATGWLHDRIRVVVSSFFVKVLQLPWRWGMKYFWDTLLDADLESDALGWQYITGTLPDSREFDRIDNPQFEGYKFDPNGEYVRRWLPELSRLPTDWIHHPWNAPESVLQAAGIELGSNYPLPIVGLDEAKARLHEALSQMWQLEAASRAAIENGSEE

Experiments:
[1] = molecular target: T1, HsFA9^WT in pGBKT7 (BD) (Arabidopsis thaliana) (UniProt Q9LVW2); experiment: two-hybrid; CRY1 as prey in pGADT7 (AD), HsF as bait in pGBKT7 (BD), co-transformed into yeast Y187; liquid beta-galactosidase assay with CPRG, Miller units; not detected (ND) if OD578 <0.01 after 3 h of color development
T1 sequence: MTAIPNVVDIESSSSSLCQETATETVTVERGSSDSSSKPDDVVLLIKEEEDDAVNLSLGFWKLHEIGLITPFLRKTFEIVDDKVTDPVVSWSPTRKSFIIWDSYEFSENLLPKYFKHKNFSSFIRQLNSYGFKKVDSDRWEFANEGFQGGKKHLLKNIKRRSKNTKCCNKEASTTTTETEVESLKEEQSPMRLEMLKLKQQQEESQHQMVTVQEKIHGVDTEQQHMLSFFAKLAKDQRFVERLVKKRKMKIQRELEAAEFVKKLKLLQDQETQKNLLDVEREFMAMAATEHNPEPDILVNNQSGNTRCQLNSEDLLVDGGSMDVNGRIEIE

[2] = molecular target: HsFB2b^WT in pGBKT7 (BD) (Arabidopsis thaliana) (UniProt Q9T0D3); experiment: as above
[3] = molecular target: HsFA3^(K174A K177A E178A) in pGBKT7 (BD) (Arabidopsis thaliana) (UniProt Q8GYY1); experiment: as above
[4] = molecular target: HsFA1b^WT in pGBKT7 (BD) (Arabidopsis thaliana) (UniProt O81821); experiment: as above
[5] = molecular target: HsFA4C^WT in pGBKT7 (BD) (Arabidopsis thaliana) (UniProt Q9FK72); experiment: as above
[6] = molecular target: HsFA1a^WT in pGBKT7 (BD) (Arabidopsis thaliana) (UniProt P41151); experiment: as above
[7] = molecular target: T2, HsFB3^WT in pGBKT7 (BD) (Arabidopsis thaliana) (UniProt O22230); experiment: as above
T2 sequence: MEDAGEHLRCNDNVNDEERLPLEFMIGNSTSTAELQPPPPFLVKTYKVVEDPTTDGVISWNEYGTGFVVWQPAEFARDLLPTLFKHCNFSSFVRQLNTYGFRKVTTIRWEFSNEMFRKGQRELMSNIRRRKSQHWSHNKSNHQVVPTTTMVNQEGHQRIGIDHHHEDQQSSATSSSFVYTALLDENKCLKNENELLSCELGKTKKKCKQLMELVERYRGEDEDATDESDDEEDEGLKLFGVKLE

[8] = molecular target: HsFA3^(K174A K177A) in pGBKT7 (BD) (Arabidopsis thaliana) (UniProt Q8GYY1); experiment: as above
[9] = molecular target: HsFB2b^K249E in pGBKT7 (BD) (Arabidopsis thaliana) (UniProt Q9T0D3); experiment: as above
[10] = molecular target: HsFB2b^WT-cYFP (Arabidopsis thaliana) (UniProt Q9T0D3); experiment: split reporter; BiFC: CRY1-nYFP and HsF-cYFP (2X35S, pPZP) agroinfiltrated into N. benthamiana leaves; confocal microscopy two days after infiltration; mCherry as marker of expression
[11] = molecular target: HsFA3^Δ(168-228)-cYFP (Arabidopsis thaliana) (UniProt Q8GYY1); experiment: as above
[12] = molecular target: HsFA1d^Δ(160-220)-cYFP (Arabidopsis thaliana) (UniProt Q9LQM7); experiment: as above
[13] = molecular target: HsFC1^R129E-cYFP (Arabidopsis thaliana) (UniProt Q9LV52); experiment: as above
[14] = molecular target: HsFA3^WT-cYFP (Arabidopsis thaliana) (UniProt Q8GYY1); experiment: as above
[15] = molecular target: HsFC1^WT-cYFP (Arabidopsis thaliana) (UniProt Q9LV52); experiment: as above
[16] = molecular target: HsFA1d^WT-cYFP (Arabidopsis thaliana) (UniProt Q9LQM7); experiment: as above

binding [1]	binding [2]	binding [3]	binding [4]	binding [5]	binding [6]	binding [7]	binding [8]	binding [9]	binding [10]	binding [11]	binding [12]	binding [13]	binding [14]	binding [15]	binding [16]	Substance
no binding	no binding	binds	no binding	no binding	no binding	no binding	no binding	no binding	–	–	–	–	–	–	–	CRY1^(PHR WT) in pGADT7 (AD) (from UniProt Q43125 1-508) (domain or fragment)
–	–	–	–	–	–	–	–	–	no binding	no binding	no binding	binds	binds	binds	binds	CRY1^(PHR WT)-nYFP (from UniProt Q43125 1-508) (domain or fragment)
